Results taken from PubChem BioAssay AID493208 (National Center for Advancing Translational Sciences (NCATS), 2011).
Hit rate of the full screen: of about 44,000 compounds, about 340 (0.77%) were called active. Not shown: some 5% with an inconclusive outcome. Calls come from the whole dose curve; as a rule, active = well fitted inhibition curve with a large enough effect; inconclusive = small, poorly fitted or top-dose-only effect; inactive = flat fitted curve, though single readings scatter. The list shows a part of the results.

test: Acumen qHTS Assay for Inhibitors of the mTORC1 Signaling Pathway in MEF (Tsc2-/-, p53-/-) Cells: Sytravon; conditions: phospho-rpS6 immunofluorescence/PI, 24 h; series mostly up to 38.3 µM; activity change, negative = inhibition: at the top concentration; note: nearly all actives have a fitted effect of over 50% in size
In short: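 Readout is phospho-S6 Alexa 488 signal normalized to PI per well, reported as % active cells with thresholds set from rapamycin (7.5 nM) and DMSO controls. Cells: Tsc2-/-, p53-/- MEFs, 24 hrs compound at 37 C; PI cell number serves as viability.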
Potency is the fitted concentration of half-maximal effect.

Activity change, negative = inhibition, inactive:
Cc1ccc(C)c(S(=O)(=O)c2nnn3c2nc(NCc2ccc4c(c2)OCO4)c2sccc23)c1 -1.98%, CN(C)c1ccc(NC(=O)Cn2c(SCc3ccccc3F)nc3cccnc32)cc1 -11.3%, COc1ccc(-c2nnc(SCC(=O)Nc3ccc(F)cc3)s2)cc1 -0.399%, O=c1c2sc3ccccc3c2n(Cc2ccccc2F)c(=O)n1CCc1ccccc1 2.7%, CN(C)c1ccc(C(CNS(=O)(=O)c2ccc(Br)cc2)N2CCOCC2)cc1 (configuration not stated) 5.56%, O=C(c1ccc2c(Cl)c3c(nc2c1)CCCC3)N1CCN(c2cccc(Cl)c2)CC1 -7.91%, CCc1ccc(-c2ccc(C(=O)Oc3ccc(Br)cc3)cc2)nc1 -12.8%, Cc1c(C)n(C)c2ccc(C(=O)NCCCN3CCCCC3)cc12 0%, COc1ccc(NC(=O)C2=C(C)Nc3nc(SCc4ccccc4)nn3C2c2cc(OC)ccc2OC)cc1 (configuration not stated) -11.7%, Cc1ccc(-c2c(C(=O)NCCc3ccc(Cl)cc3)oc(=O)c3ccccc23)cc1 5.95%, Cc1ccc(Cn2ccc(NC(=O)c3cc(-c4ccc(Cl)c(Cl)c4)on3)n2)cc1 3.49%, COCCc1nn2c(=O)cc(COC(=O)c3ccc(C(C)(C)C)cc3)nc2s1 -15.1%, Cc1ccc(S(=O)(=O)c2nc(-c3ccc(Cl)cc3)oc2N2CCCCCC2)cc1 -4.13%, CCN(CC)S(=O)(=O)c1ccc(C(=O)N=c2sc3cccc(OC)c3n2C)cc1 -6.23%, COc1ccc(CNc2ncnc3c2c(-c2ccccc2)cn3-c2ccccc2)cc1 -4.36%, CN1CC(=O)N(CC(=O)Nc2ccc(Cl)c(C(F)(F)F)c2)c2ccccc2C1=O -2.39%, Cc1c(-c2cccc(NC(=O)C(C)(C)C)c2)nc2ncccn12 -0.112%, Cc1ccc(-c2nc(SCc3ccc(Br)cc3)n3[nH]c(=O)cc3n2)cc1 -2.33%, COc1ccccc1CNC(=O)c1cccc(Nc2nc3ccccc3n3nnnc23)c1 -1.79%, Cc1ccc2nc(N3CCN(c4cccc(C)c4C)CC3)c3nnnn3c2c1 0.346%, CCC1CN(C(=O)N2CCC(C(=O)NCc3cccs3)CC2)c2cc(C)ccc2O1 (configuration not stated) 9.31%, CCOc1ccc(-c2cc(C(=O)NCc3ccccc3)c3c(-c4ccc(CC)cc4)[nH]nc3n2)cc1 -11.2%, O=C(COc1ccc(F)cc1)Nc1ccc2nc(SCc3ccccc3)sc2c1 -12.9%, CCc1cccc(NC(=O)CSc2ncc3c(n2)-c2ccccc2N(Cc2ccccc2C)S3(=O)=O)c1 3.47%, Cc1ccccc1Nc1c2c(nc3nncn13)CCC2 -9.37%, CC(C)(C)C(=O)Nc1c(C(=O)N2CCN(c3ccc(F)cc3)CC2)oc2ccccc12 3.28%, COc1ccc(NC(=O)Cc2csc(C)n2)cc1 -2.88%, Cc1cccc(-c2nc3scc(CCNC(=O)c4ccccc4Cl)n3n2)c1 -15.9%, CCOC(=O)C1CCN(S(=O)(=O)c2cc(-c3cc(C)no3)ccc2C)CC1 0%, CCCCCn1c(=O)[nH]c2cc(C(=O)Nc3ccc(F)cc3)ccc2c1=O 0%, CC(C)c1nn2c(=O)cc(COC(=O)c3ccc(NC(=O)CCc4ccccc4)cc3)nc2s1 8.42%, Cc1cccc(NC(=O)CSc2nnc(CNC(=O)c3c(F)cccc3Cl)o2)c1C -5.04%, CC1CCN(CCNC(=O)c2ccc(Cn3c(SCc4ccccc4)nc4cccnc43)cc2)CC1 -5.88%, Oc1c(C(c2ccc(F)cc2)N2CCCC2)sc2nc(-c3ccco3)nn12 (configuration not stated) -1.37%, Cc1ccc(S(=O)(=O)c2cn(C)c3cc(N4CCOCC4)c(F)cc3c2=O)c(C)c1 3.13%, COc1ccc(N2CCN(c3ncnc4c3nc3n4CCCCC3)CC2)cc1 3.16%, Cc1ccc(CCNC(=O)C2COc3ccccc3C2)cc1 (configuration not stated) -4.61%, Cc1ccc(Cl)cc1-n1c(=O)c2sc3ccccc3c2n(CC(=O)NC2CCCC2)c1=O 0.0656%, Cc1ccc2c(c1)-c1onc(C(=O)N3CCN(c4cc(C)ccc4C)CC3)c1CO2 5.7%, Cc1cc(C)n(-c2nc3cc(Cl)ccc3nc2N2CCN(c3cccc(C)c3C)CC2)n1 5.23%, COc1ccccc1CNS(=O)(=O)c1c(C(=O)N2CCC(C)CC2)c(C)n(C)c1C 0%, Cc1ccc(CCNC(=O)Cn2ncc3c([nH]c4ccccc43)c2=O)cc1 2.28%, CCCCCN1C(C(=O)c2ccccc2)=C(NC(=O)c2ccc(OC)c(OC)c2)c2ccccc2S1(=O)=O -2.63%, COc1ccc(C)cc1NC(=O)CSc1nc(=O)n(Cc2cccnc2)c2c1CCC2 -10.9%, COC(=O)c1ccccc1NC(=O)CSc1cc(-c2ccccc2)nc(C)n1 2.42%, Clc1ccc(-c2ccc(CNCCSc3nnnn3-c3ccccc3)o2)cc1 -4.59%, O=C(CCn1c(=O)c2cccn2c2ccc(F)cc21)NCCc1ccc(Cl)cc1 8.22%, COc1ccc(NC(=O)N2CCC(CN3CCCC3)CC2)c(OC)c1 -0.207%, O=C(C1CCCN(S(=O)(=O)c2cccc3nonc23)C1)N1CCN(c2ccccc2F)CC1 (configuration not stated) -2.91%, COc1ccc(C2(CNC(=O)C(=O)Nc3ccc(C)c(Cl)c3)CCCC2)cc1OC -0.97%, CCN(CC)S(=O)(=O)c1nnc(NC(=O)COc2ccccc2)s1 -17.2%, CC(=O)c1ccc(N2C(=O)N(Cc3ccc(F)cc3)c3ccccc3S2(=O)=O)cc1 1.53%, CCN1CCN(c2oc(-c3ccc(COc4ccc(OC)cc4)o3)nc2C#N)CC1 -10.1%, CC(C)(C)OC(=O)N1CCC(c2c(C(=O)NCCN3CCOCC3)cnn2-c2cccc(F)c2)CC1 4.52%, COc1ccc(OC)c(C(=O)CN2C(=O)N(c3cc(C)cc(C)c3)S(=O)(=O)c3ccccc32)c1 -0.719%, Clc1cccc(-n2ncc3c(NCCC4=CCCCC4)ncnc32)c1 13.1%, COc1ccc(-c2nc(SCC(=O)NCc3nc4ccccc4n3C)n3[nH]c(=O)cc3n2)cc1 -8.26%, CCCCN1C(=O)C(NC(=O)c2ccc(C(C)(C)C)cc2)(C(F)(F)F)C(C(=O)OC)=C1C (configuration not stated) -18.3%, Cc1ccc(NC(=O)CSc2nnc(C)s2)c(C)c1 7.38%, COc1ccc(NC(=O)C2CCN(c3nc4ccccc4[nH]3)CC2)cc1OC 4.84%, Cc1cc(O)c(C(c2ccc(F)cc2)N2CCN(c3ccccc3)CC2)c(=O)n1Cc1ccco1 (configuration not stated) 1.28%

Potency, active:
O=C(CC1(O)C(=O)N(CCc2ccccc2)c2ccc(Br)cc21)c1ccccc1O (configuration not stated) 18.5 µM
